# In PubChem BioAssay (NCI):
#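 1) Cells in 96-well plates. 2) Compound, 48 h, 5 concentrations. 3) Linear interpolation between surrounding doses. 4) Unreached endpoint = highest concentration. GI50: concentration for 50% inhibition of growth.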 The source holds more than one record for some entries. The list is limited to them. An entry can have further records. For part of these data: A record mostly stands for its own series of concentrations, not given here; a value can be the end of its range. Marks in square brackets tell the records apart. Letters hold for one entry only. For part of these data: Results that share an entry repeat one measurement (runs, samples, wells, individuals or studies).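 TGI marks complete inhibition of growth.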
# Columns and labels:
# Assay in all cases: inhibition of tumour cell growth, NCI panel, 48 h
# MOLT-4 leukemia = system: MOLT-4 leukemia
# NCI-H226 lung = system: NCI-H226 lung
# NCI-H23 lung = system: NCI-H23 lung
# NCI-H460 lung = system: NCI-H460 lung
# OVCAR-4 ovarian = system: OVCAR-4 ovarian
# OVCAR-5 ovarian = system: OVCAR-5 ovarian
# OVCAR-8 ovarian = system: OVCAR-8 ovarian
# RPMI-8226 leukemia = system: RPMI-8226 leukemia
# RXF 393 renal = system: RXF 393 renal
# SF-268 CNS = system: SF-268 CNS
# SF-295 CNS = system: SF-295 CNS
# SF-539 CNS = system: SF-539 CNS
# SK-MEL-28 melanoma = system: SK-MEL-28 melanoma
# SK-MEL-5 melanoma = system: SK-MEL-5 melanoma
# SK-OV-3 ovarian = system: SK-OV-3 ovarian
# SN12C renal = system: SN12C renal
# SNB-19 CNS = system: SNB-19 CNS
# SNB-75 CNS = system: SNB-75 CNS
# SR leukemia = system: SR leukemia
# SW-620 colon = system: SW-620 colon
# T-47D breast = system: T-47D breast
# TK-10 renal = system: TK-10 renal
# U251 CNS = system: U251 CNS
# UACC-257 melanoma = system: UACC-257 melanoma
# UO-31 renal = system: UO-31 renal
smiles,measurement,setting,value
CCC1(O)CC(OC2CC(N(C)C)C(OC3CC4OC5CC(=O)C(C)OC5OC4C(C)O3)C(C)O2)c2c(cc3c(c2O)C(=O)c2c(O)ccc(O)c2C3=O)C1C(=O)OC (stereo not given),GI50,MOLT-4 leukemia,"< 0.1 nM, 1.76 nM [sample A, 1 test] and 9.99 nM [sample B, mean of 4 tests] and 1.1 nM [sample B, mean of 7 tests]"
same,TGI,MOLT-4 leukemia,"< 0.1 nM, 7.32 nM [sample A, 1 test] and < 32.9 nM [sample B, mean of 2 tests] and 17.8 nM [sample B, mean of 4 tests] and 23.3 nM [sample B, mean of 7 tests]"
same,GI50,NCI-H226 lung,"< 0.1 nM, 4.75 nM [sample A, 1 test] and 7.77 nM [sample B, mean of 2 tests] and 4.07 nM [sample B, mean of 7 tests]"
same,TGI,NCI-H226 lung,"< 0.1 nM [sample A, 1 test] and 22.6 nM [sample B, 1 test] and 79 nM [sample B, mean of 2 tests] and 34.7 nM [sample B, mean of 7 tests]"
same,GI50,NCI-H23 lung,"< 0.1 nM, 13.5 nM [sample A, 1 test] and 8.7 nM [sample B, mean of 4 tests] and 6.29 nM [sample B, mean of 7 tests]"
same,TGI,NCI-H23 lung,"0.11 nM, 162 nM [sample A, 1 test] and 22.1 nM [sample B, mean of 2 tests] and 27 nM [sample B, mean of 4 tests] and 25.4 nM [sample B, mean of 7 tests]"
same,GI50,NCI-H460 lung,"< 0.1 nM, 0.387 nM [sample A, 1 test] and 7.5 nM [sample B, mean of 2 tests] and 0.697 nM [sample B, mean of 5 tests]"
same,TGI,NCI-H460 lung,"10.3 nM, 141 nM, 1.01 µM [sample A, 1 test] and 82.3 nM, 312 nM [sample B, mean of 2 tests] and 23.8 nM [sample B, mean of 5 tests]"
same,GI50,OVCAR-4 ovarian,"< 0.1 nM, 4.6 nM [sample A, 1 test] and 7.56 nM [sample B, mean of 2 tests] and 4.34 nM [sample B, mean of 7 tests]"
same,TGI,OVCAR-4 ovarian,"1.99 nM, 37.5 nM [sample A, 1 test] and 78.8 nM [sample B, mean of 2 tests] and 107 nM [sample B, mean of 7 tests]"
same,TGI,OVCAR-5 ovarian,1.32 µM [mean of 2 tests] and 188 nM [mean of 6 tests] and 10.6 nM [mean of 8 tests]
same,GI50,OVCAR-8 ovarian,"< 0.1 nM, 1.93 nM [sample A, 1 test] and 9.17 nM [sample B, mean of 4 tests] and 2.43 nM [sample B, mean of 7 tests]"
same,TGI,OVCAR-8 ovarian,"1.51 nM [sample A, 1 test] and 242 nM [sample B, mean of 2 tests] and 170 nM [sample B, mean of 4 tests] and 503 nM [sample B, mean of 7 tests]"
same,GI50,RPMI-8226 leukemia,"< 0.1 nM, 1.02 nM [sample A, 1 test] and 8.42 nM [sample B, mean of 4 tests] and 3.36 nM [sample B, mean of 6 tests]"
same,TGI,RPMI-8226 leukemia,"< 0.1 nM, 25.1 nM [sample A, 1 test] and 19.3 nM [sample B, 1 test] and 23.5 nM [sample B, mean of 4 tests] and 26.6 nM [sample B, mean of 6 tests]"
same,GI50,RXF 393 renal,"< 0.1 nM [sample A, 1 test] and 7.5 nM [sample B, mean of 4 tests] and 1.67 nM [sample B, mean of 6 tests]"
same,TGI,RXF 393 renal,"< 0.1 nM [sample A, 1 test] and 9.55 nM [sample B, mean of 4 tests] and 6.77 nM [sample B, mean of 6 tests]"
same,GI50,SF-268 CNS,"< 0.1 nM, 14.2 nM [sample A, 1 test] and 22 nM [sample B, mean of 4 tests] and 7.63 nM [sample B, mean of 6 tests]"
same,TGI,SF-268 CNS,"103 nM, 232 nM [sample A, 1 test] and 429 nM [sample B, mean of 2 tests] and 373 nM [sample B, mean of 4 tests] and 223 nM [sample B, mean of 6 tests]"
same,GI50,SF-295 CNS,"< 0.1 nM [sample A, 1 test] and 8.56 nM [sample B, mean of 4 tests] and 2.81 nM [sample B, mean of 7 tests]"
same,TGI,SF-295 CNS,"1.35 nM [sample A, 1 test] and 451 nM [sample B, mean of 2 tests] and 28.3 nM [sample B, mean of 4 tests] and 35.8 nM [sample B, mean of 7 tests]"
same,GI50,SF-539 CNS,"< 0.1 nM, 18.8 nM [sample A, 1 test] and 16.6 nM, 9.84 nM [sample B, mean of 6 tests]"
same,TGI,SF-539 CNS,"0.911 nM, 160 nM [sample A, 1 test] and 51.7 nM [sample B, mean of 2 tests] and 80 nM, 22.6 nM [sample B, mean of 6 tests]"
same,GI50,SK-MEL-28 melanoma,"< 0.1 nM [sample A, 1 test] and 10 nM [sample B, mean of 2 tests] and 29.1 nM [sample B, mean of 5 tests] and 12.4 nM [sample B, mean of 8 tests]"
same,TGI,SK-MEL-28 melanoma,"138 nM, 16.1 nM [sample A, 1 test] and 76.7 nM [sample B, mean of 2 tests] and 76.1 nM [sample B, mean of 5 tests] and 45.8 nM [sample B, mean of 8 tests]"
same,GI50,SK-MEL-5 melanoma,"< 0.1 nM, 12.1 nM [sample A, 1 test] and 8.16 nM [sample B, mean of 5 tests] and 5.07 nM [sample B, mean of 8 tests]"
same,TGI,SK-MEL-5 melanoma,"0.274 nM, 49.9 nM [sample A, 1 test] and 13.9 nM [sample B, mean of 5 tests] and 23.2 nM [sample B, mean of 8 tests]"
same,GI50,SK-OV-3 ovarian,"< 0.1 nM [sample A, 1 test] and 9.28 nM [sample B, mean of 6 tests] and 6.43 nM [sample B, mean of 7 tests]"
same,TGI,SK-OV-3 ovarian,"136 nM, 6.75 µM [sample A, 1 test] and 8.15 µM [sample B, mean of 2 tests] and 1.5 µM [sample B, mean of 6 tests] and 395 nM [sample B, mean of 7 tests]"
same,GI50,SN12C renal,"< 0.1 nM [sample A, 1 test] and 8.54 nM [sample B, mean of 6 tests] and 4.13 nM [sample B, mean of 7 tests]"
same,TGI,SN12C renal,"8.59 nM [sample A, 1 test] and > 36.6 µM [sample B, mean of 2 tests] and 260 nM [sample B, mean of 6 tests] and 415 nM [sample B, mean of 7 tests]"
same,GI50,SNB-19 CNS,"< 0.1 nM, 2.69 nM [sample A, 1 test] and < 12.9 nM [sample B, mean of 2 tests] and 12.9 nM [sample B, mean of 4 tests] and 5.5 nM [sample B, mean of 7 tests]"
same,GI50,SNB-75 CNS,"1.86 nM [sample A, 1 test] and 19.4 nM [sample B, mean of 6 tests] and 1.7 nM [sample B, mean of 8 tests]"
same,TGI,SNB-75 CNS,"295 nM, 52.4 nM [sample A, 1 test] and < 14.6 nM [sample B, mean of 2 tests] and 27.9 nM [sample B, mean of 6 tests] and 16.6 nM [sample B, mean of 8 tests]"
same,GI50,SR leukemia,"4.04 nM [sample A, 1 test] and 0.233 nM [sample B, mean of 3 tests]"
same,TGI,SR leukemia,"131 nM, 10.4 nM [sample A, 1 test] and 1.7 nM [sample B, mean of 3 tests]"
same,GI50,SW-620 colon,"< 0.1 nM, 3.32 nM [sample A, 1 test] and 7.5 nM [sample B, mean of 4 tests] and 2 nM [sample B, mean of 8 tests]"
same,TGI,SW-620 colon,"11.5 nM [sample A, 1 test] and 335 nM [sample B, mean of 4 tests] and 381 nM [sample B, mean of 8 tests]"
same,GI50,T-47D breast,"< 0.1 nM, 57.9 nM [sample A, 1 test] and 3 nM [sample B, mean of 3 tests]"
same,TGI,TK-10 renal,27 nM [1 test] and 723 nM [mean of 2 tests]
same,TGI,U251 CNS,"259 nM, 239 nM [sample A, 1 test] and 1.07 µM [sample B, mean of 2 tests] and 362 nM [sample B, mean of 5 tests] and 330 nM [sample B, mean of 7 tests]"
same,GI50,UACC-257 melanoma,"< 0.1 nM [sample A, 1 test] and 13.8 nM [sample B, mean of 4 tests] and 14.7 nM [sample B, mean of 8 tests]"
same,TGI,UACC-257 melanoma,"0.254 nM [sample A, 1 test] and 72.5 nM [sample B, 1 test] and 27.1 nM [sample B, mean of 4 tests] and 40.4 nM [sample B, mean of 8 tests]"
same,GI50,UO-31 renal,"< 0.1 nM [sample A, 1 test] and 2.69 nM, 7.5 nM [sample B, mean of 4 tests]"
same,TGI,UO-31 renal,"< 0.1 nM [sample A, 1 test] and 9.17 nM, 382 nM [sample B, mean of 4 tests]"
